In US7629351B2, “N-((1R,2S,5R)-5-(tert-butylamino)-2-((S)-2-oxo-3-(6-(trifluoromethyl)quinazolin-4-ylamino) pyrrolidin-1-yl)cyclohexyl)acetamide and other modulators of chemokine receptor activity, crystalline forms and process” (Bristol-Myers Squibb Company, priority 2006, dated 2009):
Like-named read-outs stand apart in the source and are kept apart here.

System: Sodium Channel, Site 2

In the case of `CC(=O)N[C@@H]1C[C@H](NC(C)(C)C)CC[C@@H]1N1CC[C@H](Nc2ncnc3ccc(C(F)(F)F)cc23)C1=O` [Example 1, N-((1R,2S,5R)-5-(tert-butylamino)-2-((S)-2-oxo-3-(6-(trifluoromethyl)quinazolin-4-ylamino)pyrrolidin-1-yl)cyclohexyl)acetamide], the “Na+ channel binding (% inhibition)” value (10,000 nM) is reported as 13%, 10,000 nM and the “Na+ channel binding (% inhibition)” value (30,000 nM) is reported as 32%, 30,000 nM.
